# Source: the supplement of paper PMC8728848
# Some of the results follow.
# Experiments:
# Test in all cases: glycan array binding signal (z-score within array); higher = stronger binding
# Conditions in all cases: glycan notation: IUPAC condensed, linker removed
# [1] = target: Neu5Ac(a2-3)Gal(b1-4)[Fuc(a1-3)]GlcNAc(b1-6)[Gal(b1-3)]GalNAc
# How it was run: (§1)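 Glycan array binding is given as a within-array Z-score, which can be read as non-binding when negative. The arrays, 3228 of them, came from the Consortium for Functional Glycomics database and were retained only where the protein sequence was available. Z-scores were averaged across arrays of the same protein sequence at different concentrations or buffers and across linkers.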
# [2] = target: Neu5Ac(a2-3)Gal(b1-4)[Fuc(a1-3)]GlcNAc(b1-6)[Neu5Ac(a2-3)Gal(b1-3)]GalNAc
# How it was run: as §1
# [3] = target: Neu5Ac(a2-3)Gal(b1-4)[Fuc(a1-3)]GlcNAc6S
# How it was run: as §1
# [4] = target: Neu5Ac(a2-3)Gal(b1-4)[Fuc(a1-3)]GlcNAc6S(b1-3)Gal(b1-4)Glc
# How it was run: as §1
# [5] = target: Neu5Ac(a2-3)Gal(b1-4)[Fuc2Me(a1-3)]GlcNAc(b1-3)Gal
# How it was run: as §1
# [6] = target: Neu5Ac(a2-3)Gal(b1-4)[Qui(a1-3)]GlcNAc(b1-3)Gal
# How it was run: as §1
# [7] = target: Neu5Ac(a2-3)Gal(b1-4)[Rha(a1-3)]GlcNAc(b1-3)Gal
# How it was run: as §1
# Neu5Ac(a2-3)Gal3S = target: Neu5Ac(a2-3)Gal3S
# How it was run: as §1
# [8] = target: Neu5Ac(a2-3)Gal6S(b1-4)GlcNAc
# How it was run: as §1
# [9] = target: Neu5Ac(a2-3)Gal6S(b1-4)[Fuc(a1-3)]GlcNAc
# How it was run: as §1
# [10] = target: Neu5Ac(a2-3)Gal6S(b1-4)[Fuc(a1-3)]GlcNAc(b1-3)Gal(b1-4)Glc
# How it was run: as §1
# [11] = target: Neu5Ac(a2-3)Gal6S(b1-4)[Fuc(a1-3)]GlcNAc6S(b1-3)Gal(b1-4)Glc
# How it was run: as §1
# Neu5Ac(a2-3)GalNAc = target: Neu5Ac(a2-3)GalNAc
# How it was run: as §1
# [12] = target: Neu5Ac(a2-3)GalNAc(b1-4)GlcNAc
# How it was run: as §1
# [13] = target: Neu5Ac(a2-3)GalNBz(b1-4)GlcNAc
# How it was run: as §1
# [14] = target: Neu5Ac(a2-3)[GalNAc(b1-4)]Gal(b1-3)Gal
# How it was run: as §1
# [15] = target: Neu5Ac(a2-3)[GalNAc(b1-4)]Gal(b1-3)GalNAc(b1-4)[Neu5Ac(a2-3)]Gal(b1-4)Glc
# How it was run: as §1
# [16] = target: Neu5Ac(a2-3)[GalNAc(b1-4)]Gal(b1-3)Glc
# How it was run: as §1
# [17] = target: Neu5Ac(a2-3)[GalNAc(b1-4)]Gal(b1-4)Glc
# How it was run: as §1
# [18] = target: Neu5Ac(a2-3)[GalNAc(b1-4)]Gal(b1-4)GlcNAc
# How it was run: as §1
# [19] = target: Neu5Ac(a2-3)[GalNAc(b1-4)]Gal(b1-4)GlcNAc(b1-3)GalNAc
# How it was run: as §1
# [20] = target: Neu5Ac(a2-3)[GalNAc(b1-6)]Gal(b1-4)Glc
# How it was run: as §1
# [21] = target: Neu5Ac(a2-3)[Neu5Ac(a2-6)]GalNAc
# How it was run: as §1
# Neu5Ac(a2-6)Gal = target: Neu5Ac(a2-6)Gal
# How it was run: as §1
# [22] = target: Neu5Ac(a2-6)Gal(b1-3)GalNAc(b1-4)Gal(b1-4)Glc
# How it was run: as §1
# [23] = target: Neu5Ac(a2-6)Gal(b1-3)GlcNAc(b1-3)[Fuc(a1-3)[Gal(b1-4)]GlcNAc(b1-6)]Gal(b1-4)Glc
# How it was run: as §1
# [24] = target: Neu5Ac(a2-6)Gal(b1-3)GlcNAc(b1-3)[Gal(b1-4)GlcNAc(b1-6)]Gal(b1-4)Glc
# How it was run: as §1
# [25] = target: Neu5Ac(a2-6)Gal(b1-3)[Neu5Ac(a2-6)]GalNAc(b1-4)Gal(b1-4)Glc
# How it was run: as §1
# Neu5Ac(a2-6)Gal(b1-4)Glc = target: Neu5Ac(a2-6)Gal(b1-4)Glc
# How it was run: as §1
# [26] = target: Neu5Ac(a2-6)Gal(b1-4)GlcNAc
# How it was run: as §1
# [27] = target: Neu5Ac(a2-6)Gal(b1-4)GlcNAc(b1-2)Man
# How it was run: as §1
# [28] = target: Neu5Ac(a2-6)Gal(b1-4)GlcNAc(b1-2)Man(a1-3)Man(b1-4)GlcNAc(b1-4)GlcNAc
# How it was run: as §1
# [29] = target: Neu5Ac(a2-6)Gal(b1-4)GlcNAc(b1-2)Man(a1-3)[Gal(b1-4)GlcNAc(b1-2)Man(a1-6)]Man(b1-4)GlcNAc(b1-4)GlcNAc
# How it was run: as §1
# [30] = target: Neu5Ac(a2-6)Gal(b1-4)GlcNAc(b1-2)Man(a1-3)[GlcNAc(b1-2)Man(a1-6)]Man(b1-4)GlcNAc(b1-4)GlcNAc
# How it was run: as §1
# [31] = target: Neu5Ac(a2-6)Gal(b1-4)GlcNAc(b1-2)Man(a1-3)[GlcNAc(b1-2)Man(b1-4)GlcNAc(b1-2)Man(a1-6)]Man(b1-4)GlcNAc(b1-4)GlcNAc
# How it was run: as §1
# [32] = target: Neu5Ac(a2-6)Gal(b1-4)GlcNAc(b1-2)Man(a1-3)[GlcNAc(b1-4)][Neu5Ac(a2-6)Gal(b1-4)GlcNAc(b1-2)Man(a1-6)]Man(b1-4)GlcNAc(b1-4)GlcNAc
# How it was run: as §1
# [33] = target: Neu5Ac(a2-6)Gal(b1-4)GlcNAc(b1-2)Man(a1-3)[Man(a1-6)]Man(b1-4)GlcNAc(b1-4)GlcNAc
# How it was run: as §1
# [34] = target: Neu5Ac(a2-6)Gal(b1-4)GlcNAc(b1-2)Man(a1-3)[Neu5Ac(a2-3)Gal(b1-4)GlcNAc(b1-2)Man(a1-6)]Man(b1-4)GlcNAc(b1-4)GlcNAc
# How it was run: as §1
# [35] = target: Neu5Ac(a2-6)Gal(b1-4)GlcNAc(b1-2)Man(a1-3)[Neu5Ac(a2-6)Gal(b1-4)GlcNAc(b1-2)Man(a1-6)]Man(b1-4)GlcNAc(b1-4)GlcNAc
# How it was run: as §1
# [36] = target: Neu5Ac(a2-6)Gal(b1-4)GlcNAc(b1-2)Man(a1-3)[Neu5Ac(a2-6)Gal(b1-4)GlcNAc(b1-2)Man(a1-6)]Man(b1-4)GlcNAc(b1-4)[Fuc(a1-6)]GlcNAc
# How it was run: as §1
# [37] = target: Neu5Ac(a2-6)Gal(b1-4)GlcNAc(b1-2)Man(a1-3)[Neu5Gc(a2-6)Gal(b1-4)GlcNAc(b1-2)Man(a1-6)]Man(b1-4)GlcNAc(b1-4)GlcNAc
# How it was run: as §1
# [38] = target: Neu5Ac(a2-6)Gal(b1-4)GlcNAc(b1-2)Man(a1-6)Man(b1-4)GlcNAc(b1-4)GlcNAc
# How it was run: as §1
# [39] = target: Neu5Ac(a2-6)Gal(b1-4)GlcNAc(b1-2)Man(a1-6)[Gal(b1-4)GlcNAc(b1-2)Man(a1-3)]Man(b1-4)GlcNAc(b1-4)GlcNAc
# How it was run: as §1
# [40] = target: Neu5Ac(a2-6)Gal(b1-4)GlcNAc(b1-2)Man(a1-6)[GlcNAc(b1-2)Man(a1-3)]Man(b1-4)GlcNAc(b1-4)GlcNAc
# How it was run: as §1
# [41] = target: Neu5Ac(a2-6)Gal(b1-4)GlcNAc(b1-2)Man(a1-6)[Man(a1-3)]Man(b1-4)GlcNAc(b1-4)GlcNAc
# How it was run: as §1
binder,measurement,setting,value
"CLEC5A (Homo sapiens), Q9NY25 (protein) MNWHMIISGLIVVVLKVVGMTLFLLYFPQIFNKSNDGFTTTRSYGTVSQIFGSSSPSPNGFITTRSYGTVCPKDWEFYQARCFFLSTSESSWNESRDFCKGKGSTLAIVNTPEKLKFLQDITDAEKYFIGLIYHREEKRWRWINNSVFNGNVTNQNQNFNCATIGLTKTFDAASCDISYRRICEKNAK",glycan array binding signal (z-score),[1],0.698
same,glycan array binding signal (z-score),[2],0.212
same,glycan array binding signal (z-score),[3],-0.319
same,glycan array binding signal (z-score),[4],-0.32
same,glycan array binding signal (z-score),[5],0.548
same,glycan array binding signal (z-score),[6],-0.32
same,glycan array binding signal (z-score),[7],-0.32
same,glycan array binding signal (z-score),Neu5Ac(a2-3)Gal3S,-0.32
same,glycan array binding signal (z-score),[8],-0.394
same,glycan array binding signal (z-score),[9],0.366
same,glycan array binding signal (z-score),[10],-0.32
same,glycan array binding signal (z-score),[11],-0.32
same,glycan array binding signal (z-score),Neu5Ac(a2-3)GalNAc,-0.191
same,glycan array binding signal (z-score),[12],-0.212
same,glycan array binding signal (z-score),[13],-0.32
same,glycan array binding signal (z-score),[14],-0.32
same,glycan array binding signal (z-score),[15],-0.32
same,glycan array binding signal (z-score),[16],-0.32
same,glycan array binding signal (z-score),[17],-0.312
same,glycan array binding signal (z-score),[18],-0.098
same,glycan array binding signal (z-score),[19],-0.136
same,glycan array binding signal (z-score),[20],-0.32
same,glycan array binding signal (z-score),[21],0.058
same,glycan array binding signal (z-score),Neu5Ac(a2-6)Gal,-0.218
same,glycan array binding signal (z-score),[22],-0.32
same,glycan array binding signal (z-score),[23],0.258
same,glycan array binding signal (z-score),[24],-0.234
same,glycan array binding signal (z-score),[25],-0.32
same,glycan array binding signal (z-score),Neu5Ac(a2-6)Gal(b1-4)Glc,-0.242
same,glycan array binding signal (z-score),[26],-0.226
same,glycan array binding signal (z-score),[27],-0.191
same,glycan array binding signal (z-score),[28],-0.22
same,glycan array binding signal (z-score),[29],0.57
same,glycan array binding signal (z-score),[30],-0.227
same,glycan array binding signal (z-score),[31],0.569
same,glycan array binding signal (z-score),[32],-0.171
same,glycan array binding signal (z-score),[33],-0.151
same,glycan array binding signal (z-score),[34],-0.161
same,glycan array binding signal (z-score),[35],0.777
same,glycan array binding signal (z-score),[36],0.113
same,glycan array binding signal (z-score),[37],-0.32
same,glycan array binding signal (z-score),[38],-0.395
same,glycan array binding signal (z-score),[39],0.092
same,glycan array binding signal (z-score),[40],-0.21
same,glycan array binding signal (z-score),[41],0.033
